# Measurements from PubChem BioAssay AID1508642 (National Center for Advancing Translational Sciences (NCATS), 2021).
# The campaign covered roughly 43,000 compounds. About 200 (0.47%) were called active. About 12% were inconclusive and are not listed. Calls come from the whole dose curve; as a rule, active = well fitted cell-killing curve with a large enough effect; inconclusive = small, poorly fitted or top-dose-only effect, or effect the other way; inactive = flat fitted curve, though single readings scatter. This is one part of the list.
# Assay: Cell viability qHTS assay in S16 Pmp22-F2sN cells; note: nearly all actives have a fitted effect of over 65% in size
# Conditions: S16 Pmp22-F2sN Schwann cells viability, CellTiter-Glo, 24 h; series mostly up to 57.5 µM; activity change, negative = cytotoxicity: at the top concentration
# Method in brief: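 Used to flag compounds lowering reporter output through toxicity, this quantitative HTS measures ATP-based CellTiter-Glo luminescence in S16 Pmp22-F2sN Schwann cells after 24 h compound exposure at 37C.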
# % is set by controls: 0 for no effect and ±100 for the full control effect.
row,Compound,"activity change, negative = cytotoxicity"
1,CCc1ccc(C(=O)NC(Cc2c[nH]c3ccccc23)C(=O)OCC(=O)c2ccc(Br)cc2)cc1 (configuration not stated),inactive: 8.68%
2,O=c1c2sccc2n(Cc2cc(=O)n3ccccc3n2)c(=O)n1-c1cccc(C(F)(F)F)c1,inactive: 10.7%
3,Cc1ccc2oc(-c3cccc(NC(=O)c4sc5c([N+](=O)[O-])cccc5c4Cl)c3)nc2c1,inactive: 4.43%
4,Cc1cnc(=O)[nH]c1SCC(=O)Nc1nc2ccccc2s1,inactive: -0.783%
5,CCOc1ccc(CCNC(=O)c2c(C)oc3ncn(C)c(=O)c23)cc1,inactive: 4.55%
6,Cc1cc(-c2ccc(C)c(S(=O)(=O)Nc3cccc(C#N)c3)c2)on1,inactive: -2.33%
7,O=C(Cn1ccc2cc(S(=O)(=O)N3CCCCCC3)ccc21)NCCc1ccc(Cl)cc1,inactive: -16.5%
8,Cc1cccc(C(=O)Nc2ccc(OCc3cc(=O)n4ccsc4n3)cc2)c1,inactive: 13.4%
9,CCN(CC)S(=O)(=O)c1ccc2c(c1)N(CC(=O)N1CCN(c3ccc(Cl)cc3)CC1)C(=O)CO2,inactive: -18.3%
10,O=C(NC1CCCCCC1)C1c2ccccc2C(=O)N1Cc1ccccc1Cl (configuration not stated),inactive: 2.57%
11,CC(C)OC(=O)c1cccnc1SCC(=O)Nc1ccc(C(F)(F)F)cc1Cl,inactive: 3.92%
12,CCN1CCN(C(=O)c2ccc3c(c2)N(Cc2ccccc2F)C(=O)c2ccccc2S3=O)CC1 (configuration not stated),inactive: 14.7%
13,Cc1ccc(-n2c3c(cc(C(=O)Nc4cccc(Cl)c4)c2=O)C(=O)CC(C)(C)C3)cc1,inactive: 0.664%
14,Cc1ccc(Cl)cc1N1CCN(C(=O)CCCCCn2c(=O)[nH]c3ccccc3c2=O)CC1,inactive: -0.718%
15,CCOc1ccccc1-c1nc(SCC(=O)c2ccc(OC)c(Br)c2)n[nH]1,inactive: 13.5%
16,CCc1ccc(NC(=O)C2CCCN(S(=O)(=O)c3c(C)noc3/C=C/N(C)C)C2)cc1 (configuration not stated),inactive: -0.327%
17,CCOc1ccc(-c2cc(-c3nc(-c4ccc(C)cc4)no3)[nH]n2)cc1,inactive: -12.1%
18,CC(=O)c1cccc(NC(=O)C(C)n2c(=O)cc(-c3ccccc3)c3c(C)nn(C)c32)c1 (configuration not stated),inactive: -20%
19,COc1cccc(CNC(=O)c2ccc(NC(=O)N3CCCCc4ccccc43)cc2)c1OC,inactive: 4.7%
20,CCOC(=O)C1CCN(C(=O)CSc2n[nH]c(-c3ccc(F)cc3)n2)CC1,inactive: 5.85%
21,COc1cccc(CNC(=O)c2c(C)oc3nc(C)nc(N4CCOCC4)c23)c1,inactive: 4.26%
22,CCc1cccc(C)c1NS(=O)(=O)c1c(C)nc2sccn2c1=O,inactive: 18.7%
23,O=C(Cn1c(=O)oc2cc(S(=O)(=O)N3CCCC3)ccc21)NCc1ccc(F)cc1,inactive: -14.7%
24,CCN1C(=O)c2ccccc2S(=O)(=O)c2ccc(C(=O)NCc3ccccc3Cl)cc21,inactive: -3.71%

row,Compound,"activity change, negative = cytotoxicity"
1,COC(=O)CSc1ncc2c(n1)-c1ccccc1N(Cc1cccc(F)c1)S2(=O)=O,inactive: -1.36%
2,Cc1nc2c(-c3ccc(F)cc3)c(C)nn2c(C)c1CCC(=O)N1CCN(c2ccc(F)cc2)CC1,inactive: -0.325%
3,Cc1cccc(CCNC(=O)c2ccc3c(c2)nc2n3CCCCC2)c1,inactive: -2.68%
4,Cc1oc(-c2cccc(Cl)c2)nc1CSc1nnc(C)n2c1cc1occc12,inactive: -0.648%
5,COC(=O)c1c(NC(=O)c2nc(SC)ncc2Cl)sc2c1CCCC2,inactive: 5.75%
6,CC(=O)NCc1nc2cccnc2n1Cc1ccccc1,inactive: 4.14%
7,COc1ccccc1N1CCN(C(=O)Cn2cnc3sc(C)c(S(=O)(=O)N4CCC(C)CC4)c3c2=O)CC1,inactive: 0.621%
8,CCc1cccc(C)c1NC(=O)Cn1c(=O)n(-c2cccc(C)c2)c(=O)c2c1c1cc(C)ccc1n2C,inactive: -0.818%
9,COc1ccc(Cl)cc1N(C)C(=O)Cc1noc2ccc(C)cc12,inactive: 2.73%
10,CCC(C)NC(=O)c1ccc2c(c1)N=C(C)c1cc(C)ccc1S2 (configuration not stated),inactive: -16.6%
11,Cc1ccc2c(=O)cc(C(=O)Nc3c(C(=O)c4ccccc4)oc4ccccc34)oc2c1C,inactive: 0.457%
12,CC(C)(C)OC(=O)N1CCC(c2c(C(=O)NCc3ccccn3)cnn2-c2ccc(F)cc2)CC1,inactive: -2.58%
13,COc1ccc2c(c1)c1c(c(=O)n(-c3cccc(C)c3)c(=O)n1CC(=O)N1CCCC1)n2C,inactive: -16.7%
14,Cc1cc(C)c2c(=O)cc(C(=O)Nc3ccc(S(=O)(=O)Nc4onc(C)c4C)cc3)oc2c1,inactive: -1.22%
15,COc1ccc(-n2nnc(C(=O)Nc3ccccc3F)c2N)cc1,inactive: -0.784%
16,CCc1ccccc1N(c1nc(-c2ccc(OC)c(OC)c2)no1)c1nc(-c2ccc(OC)c(OC)c2)no1,inactive: -0.454%
17,CCN1C(=O)c2ccccc2Sc2ccc(NC(=O)Cc3ccc(OC)cc3)cc21,inactive: -21.4%
18,CCCn1cc(S(=O)(=O)c2cc(C)ccc2C)c(=O)c2cc(F)c(N3CCCCCC3)cc21,inactive: -11.1%
19,COc1ccc(-c2cc(-c3ccccc3)nc3c2COc2ccccc2-3)cc1,inactive: 27.5%
20,CC(C)CC(=O)Nc1nnc2n1CCS2,inactive: -4.15%
21,CCOc1ccc(NCc2cccn2-c2nnc(N3CCC(C(=O)NCc4cccc(OC)c4)CC3)s2)cc1,inactive: -20.8%
22,COc1ccc(CNC(=O)C2CCN(S(=O)(=O)c3ccc4nc5c(c(C(=O)O)c4c3)CC(C)CC5)CC2)cc1 (configuration not stated),inactive: -1.42%
23,CCc1ccc(NC(=O)C2CCCN(S(=O)(=O)c3cccc4nonc34)C2)cc1 (configuration not stated),inactive: 30%
